Out of some 43,000 compounds screened, about 200 (0.47%) were called active. Inconclusive results, whose numbers are uncertain, are shown with a selection of clear calls. Calls come from the whole dose curve; as a rule, active = well fitted cell-killing curve with a large enough effect; inconclusive = small, poorly fitted or top-dose-only effect, or effect the other way; inactive = flat fitted curve, though single readings scatter. A potency beside an inconclusive call is a rough fit, not a confirmed value.
Test: Cell viability qHTS assay in S16 Pmp22-F2sN cells; note: nearly all actives have a fitted effect of over 65% in size
Details: S16 Pmp22-F2sN Schwann cells viability, CellTiter-Glo, 24 h; activity change, negative = cytotoxicity: at 57.5 µM (top of the series)
How it was run: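 Used to flag compounds lowering reporter output through toxicity, this quantitative HTS measures ATP-based CellTiter-Glo luminescence in S16 Pmp22-F2sN Schwann cells after 24 h compound exposure at 37C.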
% is set by controls: 0 for no effect and ±100 for the full control effect; potency is the fitted concentration of half-maximal effect; tags give direction and shape of the fitted curve.

| SMILES | Potency | activity change, negative = cytotoxicity |
| --- | --- | --- |
| Cc1cc(N2CCCCC2)nc2ccc(NC(=O)/C=C/c3ccccc3Cl)cc12 | inconclusive: 39.8 µM [cytotoxic, single point] |  |
| CCOc1ccccc1CC1C(=O)Nc2ccc(Br)cc21 (configuration not stated) | inconclusive: 39.8 µM [cytotoxic, single point] |  |
| CCCCC(CC)CNC(=O)c1ccc2c(=O)n(Cc3ccc(OC)cc3)c(=O)[nH]c2c1 (configuration not stated) |  | inactive: 2.51% |
| Cc1cc(C)cc(NS(=O)(=O)c2ccc3c(c2)CCCN3C(=O)C2CCC2)c1 | inconclusive: 28.2 µM [cytotoxic, single point] |  |
| Cc1cc(C)n(C(C)CC(=O)NCc2ccc(N(C)C)cc2)n1 (configuration not stated) |  | inactive: 7.81% |
| COc1ccccc1NC(=O)C1=C(C)Nc2nc(SCc3ccccc3C)nn2C1CC(C)C (configuration not stated) |  | inactive: -7.59% |
| O=C(Nc1cccc(Cl)c1)c1cnc[nH]1 |  | inactive: 12% |
| O=C(Nc1ccccc1)c1ccc(Br)c(S(=O)(=O)N2CCCCC2)c1 | inconclusive: 39.8 µM [cytotoxic, single point] |  |
| CCC(Oc1ccccc1)C(=O)Nc1cc(-c2ccccc2OC)nn1-c1ccccc1 (configuration not stated) | inconclusive: 0.891 µM [cytotoxic, full curve, poor fit] |  |
| Cc1ccc(CS(=O)(=O)c2ncc(Cl)c(C(=O)Nc3nc4ccc(F)cc4s3)n2)cc1 | inconclusive: 39.8 µM [cytotoxic, single point] |  |
| Cc1ccc(NS(=O)(=O)c2ccc3c(c2)CCCN3C(=O)C2CCC2)cc1Cl | inconclusive: 39.8 µM [cytotoxic, single point] |  |
| COCCNc1nc2c(S(=O)(=O)c3ccc(C)c(C)c3)nnn2c2ccc(Cl)cc12 |  | inactive: -9.51% |
| Cc1nc2nncn2c(NCc2ccc(F)cc2)c1C | inconclusive: 22.4 µM [cytotoxic, single point] |  |
| CC(=O)Nc1ccc(NC(=O)c2oc3ccc4c(c3c2C)C(=O)CC(C)(C)O4)cc1 | inconclusive: 3.55 µM [rising, full curve] |  |
| CC(=O)N1CCCc2cc(S(=O)(=O)N3CCCC(C(=O)Nc4cc(Cl)ccc4C)C3)ccc21 (configuration not stated) | inconclusive: 39.8 µM [cytotoxic, single point] |  |
| COc1ccc(NC(=O)c2ccc3c(=O)n4nc(Nc5cccc(Cl)c5C)sc4nc3c2)cc1 | inconclusive: 35.5 µM [cytotoxic, partial curve, poor fit] |  |
| C=Cc1ccc(Cn2c(C(=O)O)c(CNCc3ccccc3)c3ccc(C)cc32)cc1 | inconclusive: 22.4 µM [cytotoxic, partial curve, poor fit] |  |
| CCCc1ccc(C2Sc3ccccc3NC3=C2C(=O)c2ccccc23)cc1 (configuration not stated) | inconclusive: 39.8 µM [cytotoxic, single point] |  |
| CCn1cc2nc(SCC(=O)Nc3ccc(C)cc3C)n(Cc3ccc(C)cc3)c(=O)c2n1 | inconclusive: 39.8 µM [cytotoxic, single point] |  |
| COc1ccc(Cn2c(SCc3ccc(C(=O)NC4CCCC4)cc3)nc3cccnc32)cc1 | inconclusive: 25.1 µM [cytotoxic, single point] |  |
| CCOc1ccccc1CNC(=O)c1cnc2sc(N3CCCCCC3)nn2c1=O | inconclusive: 39.8 µM [cytotoxic, single point] |  |

| SMILES | Potency | activity change, negative = cytotoxicity |
| --- | --- | --- |
| CCc1ccc(S(=O)(=O)NCCc2csc3nc(-c4ccccc4)nn23)s1 | inconclusive: 25.1 µM [cytotoxic, single point] |  |
| COc1cc(Cl)c(C)cc1NC(=O)c1ccc2c(Cl)c3c(nc2c1)CCC3 |  | inactive: 1.9% |
| CCOc1ccc(C(=O)c2cn(Cc3ccccc3OC)c3ccc(F)cc3c2=O)cc1 |  | inactive: -2.17% |
| Cc1nn(-c2ccccc2)c2nc(C3CC3)cc(C(=O)Nc3ccccc3F)c12 | inconclusive: 25.1 µM [cytotoxic, single point] |  |
| CN1C(=O)c2ccccc2Sc2ccc(NC(=O)COc3ccc(F)cc3)cc21 | inconclusive: 39.8 µM [cytotoxic, single point] |  |
| O=C(NCCc1ccccc1)c1cc(S(=O)(=O)N2CCCCC2)c[nH]1 | inconclusive: 8.91 µM [cytotoxic, partial curve, poor fit] |  |
| CCOC(=O)c1cnc2c(ccc3ccccc32)c1Nc1cccc(OC)c1 | inconclusive: 39.8 µM [cytotoxic, single point] |  |
| COCCN1C(=O)c2[nH]nc(-c3ccccc3O)c2C1c1ccc(Cl)c(Cl)c1 (configuration not stated) | inconclusive: 39.8 µM [cytotoxic, partial curve, poor fit] |  |
| CCN(CC)c1cc(C)c2cc(NC(=O)c3ccccc3OC)ccc2n1 | inconclusive: 2.24 µM [rising, partial curve, poor fit] |  |
| COc1ccc(-c2nnc(SCC(=O)NCc3ccc(C)cc3)nc2-c2ccc(OC)c(OC)c2)cc1OC | inconclusive: 39.8 µM [cytotoxic, single point] |  |
| CC1CCN(CCCNC(=O)c2cc(Sc3ccc(F)cc3)nc3ccccc23)CC1 | inconclusive: 39.8 µM [cytotoxic, single point] |  |
| CCc1ccc(CN(Cc2cn[nH]c2-c2ccc(OC)cc2)C(=O)Nc2ccc(C)c(F)c2)cc1 | inconclusive: 28.2 µM [cytotoxic, single point] |  |
| Cc1nc(C)c(-c2ccc(SCC(=O)Nc3ccc(F)c(F)c3)nn2)s1 | inconclusive: 17.8 µM [cytotoxic, single point] |  |
| Cc1csc2nc(-c3cccc(NC(=O)c4ccccc4Cl)c3)cn12 |  | inactive: 13.3% |
| COc1ccc(C2c3c(-c4c(C)cc(C)cc4O)n[nH]c3C(=O)N2Cc2ccco2)cc1 (configuration not stated) |  | inactive: -1% |
| CCOC(=O)c1cccc(NC(=O)c2ccc3c(Cl)c4c(nc3c2)CCC4)c1 |  | inactive: 4.35% |
| O=C(NCCCN1CCN(c2ccc(F)cc2)CC1)Nc1ccc(Cl)cc1 | inconclusive: 39.8 µM [cytotoxic, single point] |  |
| Cc1ccc(C)c(NC(=O)Cn2c(=O)n(Cc3ccco3)c(=O)c3oc4ccccc4c32)c1 |  | inactive: -2.44% |
| CCOC(=O)c1noc2ncnc(Nc3ccc(F)cc3F)c12 | inconclusive: 20 µM [cytotoxic, partial curve, poor fit] |  |
| Cc1cccc(NC(=O)c2nc(S(C)(=O)=O)ncc2Cl)c1 | active: 5.01 µM |  |
| Cc1ccc(CN2CCSc3ccc(C(=O)N4CCN(c5cc(C)ccc5C)CC4)cc32)cc1 | inconclusive: 39.8 µM [cytotoxic, single point] |  |

| SMILES | Potency | activity change, negative = cytotoxicity |
| --- | --- | --- |
| Cc1ccc(C)c(N2CCN(CCCNC(=O)Cn3ncc4c5ccccc5n(C)c4c3=O)CC2)c1 | inconclusive: 25.1 µM [cytotoxic, single point] |  |
| COc1cc2c(cc1OC)C(COc1ccc3c(C)cc(=O)oc3c1)N(C(=O)c1ccc(Cl)cc1)CC2 (configuration not stated) | inconclusive: 2.24 µM [cytotoxic, full curve, poor fit] |  |
| COc1cc(NC(=O)N2CCC(CN3CCCC3)CC2)cc(OC)c1OC | inconclusive: 0.447 µM [rising, full curve, poor fit] |  |
| COc1cc(C(=O)NCC(c2cccnc2)N2CCc3ccccc32)cc(OC)c1OC (configuration not stated) | inconclusive: 39.8 µM [cytotoxic, partial curve, poor fit] |  |
| CN(C)c1ccc(C(CNC(=O)c2ccc(C(C)(C)C)cc2)N2CCOCC2)cc1 (configuration not stated) | inconclusive: 35.5 µM [rising, single point] |  |
| Cc1ccc(NC(=O)Cc2ccc(-n3c(C)nc4cccnc43)cc2)cc1C | inconclusive: 39.8 µM [cytotoxic, single point] |  |
| CCOC(=O)c1cc(-c2ccccc2)n(CCCC(=O)Nc2ccc(C(C)C)cc2)c1C | inconclusive: 7.08 µM [cytotoxic, partial curve] |  |
| O=C(CC1C(=O)N(c2ccccc2)C(=O)N1CCC1=CCCCC1)Nc1ccc(F)cc1 (configuration not stated) | inconclusive: 39.8 µM [cytotoxic, partial curve, poor fit] |  |
| O=C1CN(C(=O)Cc2ccc(F)cc2)C(c2ccccc2)c2cc(Cl)ccc2N1 (configuration not stated) |  | inactive: 2.26% |
| CCOC(=O)C1CCN(C(=O)CCS(=O)(=O)c2cc3c(cc2Cl)NC(=O)CO3)CC1 |  | inactive: -0.484% |
| Cc1ccc(CSc2ncc(Cl)c(C(=O)NCCc3ccc(S(N)(=O)=O)cc3)n2)cc1 | inconclusive: 20 µM [cytotoxic, single point] |  |
| COC(=O)c1ccc(Nc2nnc(-c3ccc(C)c(S(=O)(=O)N4CCN(C)CC4)c3)c3ccccc23)cc1 | inconclusive: 28.2 µM [cytotoxic, single point] |  |
| COc1ccccc1CNC(=O)c1oc2ccc(S(=O)(=O)N3CCCCC3)cc2c1C | inconclusive: 22.4 µM [cytotoxic, single point] |  |
| COc1ccc(OCC(=O)OCc2cc(=O)n3cc(C)sc3n2)cc1 | inconclusive: 3.16 µM [cytotoxic, full curve] |  |
| CCOc1ccc(S(=O)(=O)NCCc2sc3nc(-c4ccc(F)cc4)nn3c2C)cc1 | inconclusive: 39.8 µM [cytotoxic, single point] |  |
| Cc1ccc(CNC(=O)c2ccc(Cn3c(=O)c4ccccc4n(CC(=O)Nc4ccc(C)cc4C)c3=O)cc2)cc1 |  | inactive: -23.8% |
| Cc1oc2ncnc(N3CCCCC3)c2c1C(=O)N1CCN(c2cccc(C(F)(F)F)c2)CC1 | inconclusive: 39.8 µM [cytotoxic, single point] |  |
| COc1ccc(-c2[nH]c3ccccc3c2SCCNC(=O)c2cc(OC)c(OC)c(OC)c2)cc1 | inconclusive: 39.8 µM [cytotoxic, single point] |  |
| O=C(NC1CCCCC1)c1ccc(Cn2c(SCc3ccccc3F)nc3cccnc32)cc1 | inconclusive: 17.8 µM [cytotoxic, single point] |  |
| CCC1CCCCN1C(=O)Cn1c(=O)n(CCCCCC(=O)NCc2ccccc2)c(=O)c2sccc21 (configuration not stated) | inconclusive: 39.8 µM [rising, single point] |  |

From PubChem BioAssay AID1508642 (National Center for Advancing Translational Sciences (NCATS), 2021)
